{
  "source": "paper PMC9917443",
  "about": "(eLife, 2023)",
  "biological_target": "GB1a/2 receptors (Homo sapiens, UniProt O75899+Q9UBS5)",
  "sequence (Q9UBS5 15-961 limits assumed)": "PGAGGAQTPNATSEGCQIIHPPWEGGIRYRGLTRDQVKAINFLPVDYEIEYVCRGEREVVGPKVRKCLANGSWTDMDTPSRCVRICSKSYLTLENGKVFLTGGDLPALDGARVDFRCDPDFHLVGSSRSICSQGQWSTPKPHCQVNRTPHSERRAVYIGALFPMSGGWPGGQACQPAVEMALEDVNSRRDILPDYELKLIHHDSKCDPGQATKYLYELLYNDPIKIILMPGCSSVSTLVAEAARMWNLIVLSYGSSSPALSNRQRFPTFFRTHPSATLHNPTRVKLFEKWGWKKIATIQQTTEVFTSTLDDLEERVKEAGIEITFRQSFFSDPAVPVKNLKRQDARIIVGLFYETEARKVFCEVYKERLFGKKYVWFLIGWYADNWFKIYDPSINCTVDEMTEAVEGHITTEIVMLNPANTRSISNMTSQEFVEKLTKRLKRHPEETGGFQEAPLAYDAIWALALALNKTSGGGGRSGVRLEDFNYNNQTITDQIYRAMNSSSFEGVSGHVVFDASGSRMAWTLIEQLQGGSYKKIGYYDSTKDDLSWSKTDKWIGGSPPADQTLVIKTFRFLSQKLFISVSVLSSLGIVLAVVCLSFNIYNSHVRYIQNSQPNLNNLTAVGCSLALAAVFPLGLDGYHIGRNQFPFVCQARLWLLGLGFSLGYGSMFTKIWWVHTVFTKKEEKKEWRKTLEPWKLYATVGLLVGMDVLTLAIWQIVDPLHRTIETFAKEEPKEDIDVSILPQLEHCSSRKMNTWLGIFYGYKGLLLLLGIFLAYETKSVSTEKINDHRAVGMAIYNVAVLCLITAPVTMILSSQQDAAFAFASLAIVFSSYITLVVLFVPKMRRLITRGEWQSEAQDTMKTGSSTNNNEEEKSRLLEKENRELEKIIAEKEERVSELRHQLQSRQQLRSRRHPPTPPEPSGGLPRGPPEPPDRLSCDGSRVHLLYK",
  "sequence (O75899 42-941 partner)": "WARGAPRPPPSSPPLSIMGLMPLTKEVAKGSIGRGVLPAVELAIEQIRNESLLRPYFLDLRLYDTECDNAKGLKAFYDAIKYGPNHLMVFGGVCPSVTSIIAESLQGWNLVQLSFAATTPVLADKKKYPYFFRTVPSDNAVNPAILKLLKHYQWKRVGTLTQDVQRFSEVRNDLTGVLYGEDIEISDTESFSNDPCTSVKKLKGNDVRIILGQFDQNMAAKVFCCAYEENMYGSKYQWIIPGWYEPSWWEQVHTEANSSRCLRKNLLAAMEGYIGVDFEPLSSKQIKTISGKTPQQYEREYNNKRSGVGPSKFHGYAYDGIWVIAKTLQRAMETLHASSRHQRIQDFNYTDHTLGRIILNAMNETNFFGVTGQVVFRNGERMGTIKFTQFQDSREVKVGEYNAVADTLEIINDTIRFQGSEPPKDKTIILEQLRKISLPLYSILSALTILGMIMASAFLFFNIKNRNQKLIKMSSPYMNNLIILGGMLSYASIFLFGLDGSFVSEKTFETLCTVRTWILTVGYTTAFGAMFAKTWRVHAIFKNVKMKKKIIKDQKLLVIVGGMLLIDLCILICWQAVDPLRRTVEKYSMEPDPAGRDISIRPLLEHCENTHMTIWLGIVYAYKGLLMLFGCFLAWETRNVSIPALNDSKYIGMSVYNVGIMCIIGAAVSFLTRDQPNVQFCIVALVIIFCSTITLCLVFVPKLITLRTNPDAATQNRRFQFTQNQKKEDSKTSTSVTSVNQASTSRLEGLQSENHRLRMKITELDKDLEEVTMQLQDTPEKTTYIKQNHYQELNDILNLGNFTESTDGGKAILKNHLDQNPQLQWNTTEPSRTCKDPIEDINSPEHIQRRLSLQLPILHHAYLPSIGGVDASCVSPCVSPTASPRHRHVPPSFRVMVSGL",
  "assay": "SRE-luciferase accumulation assay (Gαqi/PLC) in HEK293T-Gαqi cells",
  "conditions": "GB1a/2; for Span (best-fit): Std. Error r39; for HillSlope of GABA curve (best-fit): Std. Error r38, 95% CI r44",
  "key": {"[1]": {"conditions": "GABA curve with 1μM peptide, one curve for all data sets"}, "[2]": {"conditions": "GABA curve with 10μM peptide, one curve for all data sets"}},
  "data": [
    {"substance": "Ac-DDSDVWWGGADTDYADG-NH2 [APP17]", "values": [
      {"measurement": "Span (best-fit)", "setting": "GABA curve with 1μM peptide, different curve for each data set", "value": 0.701},
      {"measurement": "Bottom (shared fit)", "setting": "[1]", "value": 0.2985},
      {"measurement": "Top (shared fit)", "setting": "[1]", "value": 0.9909},
      {"measurement": "Span (best-fit)", "setting": "GABA curve with 10μM peptide, different curve for each data set", "value": 0.6701},
      {"measurement": "Bottom (shared fit)", "setting": "[2]", "value": 0.2985},
      {"measurement": "Top (shared fit)", "setting": "[2]", "value": 0.9909},
      {"measurement": "LogEC50 of GABA (best-fit)", "setting": "Log [GABA] (M), with 1μM peptide, different curve for each data set, Std. Error r37, 95% CI r43", "value": -6.522},
      {"measurement": "LogEC50 of GABA (shared fit)", "setting": "Log [GABA] (M), with 1μM peptide, one curve for all data sets", "value": -6.483},
      {"measurement": "LogEC50 of GABA (shared fit)", "setting": "Log [GABA] (M), with 10μM peptide, one curve for all data sets", "value": -6.483},
      {"measurement": "HillSlope of GABA curve (best-fit)", "setting": "with 1μM peptide, different curve for each data set", "value": 1.208},
      {"measurement": "HillSlope of GABA curve (best-fit)", "setting": "with 10μM peptide, different curve for each data set", "value": 0.9672},
      {"measurement": "HillSlope of GABA curve (shared fit)", "setting": "with 10μM peptide, one curve for all data sets", "value": 1.133}
    ]}
  ]
}
